# Publication PMC4336329 (PLoS ONE, 2015)
# Among all 310,000 compounds or so, about 14,000 (4.5%) showed an effect of 50% or more. The effect is printed as a negative number. The list shows a part of the results.
# Target: human ether-à-go-go-related gene (hERG) potassium channel (human, UniProt Q12809)
# Assay: primary screen, population patch clamp on CHO cells stably expressing hERG
# 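Further: peak tail current of the secondary pulse compared with the same well before compound.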
# Sequence of human ether-à-go-go-related gene (hERG) potassium channel (Q12809 whole entry, looked up): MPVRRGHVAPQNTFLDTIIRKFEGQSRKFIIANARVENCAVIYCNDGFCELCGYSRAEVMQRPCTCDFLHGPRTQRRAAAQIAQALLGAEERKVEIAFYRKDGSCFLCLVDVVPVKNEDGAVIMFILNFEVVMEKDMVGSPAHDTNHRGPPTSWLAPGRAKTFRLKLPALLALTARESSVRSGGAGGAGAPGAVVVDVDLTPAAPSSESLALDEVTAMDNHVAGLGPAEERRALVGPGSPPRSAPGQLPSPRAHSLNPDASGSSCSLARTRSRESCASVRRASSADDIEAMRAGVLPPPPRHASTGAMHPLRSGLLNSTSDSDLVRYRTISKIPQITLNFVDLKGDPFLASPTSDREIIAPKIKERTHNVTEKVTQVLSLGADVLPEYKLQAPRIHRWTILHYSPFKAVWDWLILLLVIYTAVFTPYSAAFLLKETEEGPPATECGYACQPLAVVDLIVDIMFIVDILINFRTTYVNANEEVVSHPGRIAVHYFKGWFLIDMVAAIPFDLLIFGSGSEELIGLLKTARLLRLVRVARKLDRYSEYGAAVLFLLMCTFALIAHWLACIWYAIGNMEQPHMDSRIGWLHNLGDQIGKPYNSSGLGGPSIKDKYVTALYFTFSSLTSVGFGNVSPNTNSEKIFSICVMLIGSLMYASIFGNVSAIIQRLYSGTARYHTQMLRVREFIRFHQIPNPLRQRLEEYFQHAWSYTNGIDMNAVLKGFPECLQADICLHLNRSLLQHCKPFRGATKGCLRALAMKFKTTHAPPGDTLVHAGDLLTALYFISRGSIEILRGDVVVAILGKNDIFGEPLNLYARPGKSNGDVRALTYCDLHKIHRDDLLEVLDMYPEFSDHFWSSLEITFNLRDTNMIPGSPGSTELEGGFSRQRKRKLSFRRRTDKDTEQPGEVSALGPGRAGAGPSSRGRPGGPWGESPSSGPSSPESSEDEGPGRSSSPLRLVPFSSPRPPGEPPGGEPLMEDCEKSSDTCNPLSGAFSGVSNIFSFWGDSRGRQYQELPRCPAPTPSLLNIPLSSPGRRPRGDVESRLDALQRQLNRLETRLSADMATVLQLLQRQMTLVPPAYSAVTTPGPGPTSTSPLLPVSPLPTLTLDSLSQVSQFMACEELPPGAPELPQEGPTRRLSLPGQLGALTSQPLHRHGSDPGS
row,SMILES,"hERG current change (%, negative = inhibition) at 10uM [%]"
1,O=C(c1cnc2ccccn2c1=O)N1CCc2ccccc21,-18.9
2,COCCCNC(=O)C1CCN(C(=O)Nc2ccc(Cl)cc2)CC1,14
3,COc1ccc(CCNC(=O)CSc2nc3ncccc3[nH]2)c(OC)c1,-11.2
4,Cc1nc2ccccn2c1C(=O)NC1CCCCC1,1.83
5,CC12CN3CC(C)(CN(C1)C3c1cc(Br)ccc1O)C2=O (stereo not shown),-2.08
6,COc1ccc(-c2c(NC(=O)c3ccco3)oc3c(C)cccc3c2=O)cc1OC,20
7,Cc1cccc(C)c1NC(=S)Nc1ccc(Cl)c(Cl)c1,-3.7
8,O=S(=O)(NCc1ccccn1)c1ccc(Br)s1,3.16
9,CCCCc1ccc(S(=O)(=O)NNC(=S)NCc2ccco2)cc1,3.87
10,CC(C)C(OC(=O)CN1C(=O)COc2ccccc21)C(=O)NC1CCCCC1 (stereo not shown),-9.89
11,CC(C)CNC(=O)c1cccc2c1-c1ccccc1C2=O,12.7
12,N#Cc1ccc[n+](CC(=O)c2ccc(Cl)cc2)c1.[Br-],8.1
13,[N-]=[N+]=N[C@@H]1C[C@H](n2ccc(=O)[nH]c2=O)O[C@@H]1CO,-33.4
14,Cc1noc(C)c1CSCC(=O)Nc1nc(-c2ccc(F)c(F)c2)cs1,-21
15,COC(=O)c1cc(S(=O)(=O)NCC2CCN(Cc3cccc(F)c3)CC2)c[nH]1,-16.7
16,Cc1ccc(-c2ccnc3c(Br)c(C)nn23)cc1,14.3
17,COc1ccc(S(=O)(=O)N(C)c2nc3ccccc3n3c(CC(C)C)nnc23)cc1,-27.6
18,CC1=C(c2ccccc2)CCC1=O,-28.7
19,COc1cc2c(cc1OC)CN(C(=O)CNC(=O)c1ccc(OC(F)F)cc1)CC2,-52.5
20,CCOCCCNC(=O)C(c1ccc(OC)cc1)N(Cc1ccc2c(c1)OCO2)C(=O)c1ccccc1O (stereo not shown),-1.34
21,COc1cc(/C=C/C(=O)OCC(=O)NCc2ccco2)ccc1OCC#N,1.7
22,CCc1ccc(NC(=O)CSc2nc3ncc(Br)cc3[nH]2)cc1,18.8

row,SMILES,"hERG current change (%, negative = inhibition) at 10uM [%]"
1,O=C(Nc1ccc2c(c1)OCO2)N1CCCC1,22.8
2,COc1ccc(CCNC(=O)CSc2nc3ccccc3o2)cc1,-6.35
3,Cc1cc(S(=O)(=O)NCc2ccccc2)ccc1OCC(=O)NCc1ccncc1,-3.71
4,Cn1nnnc1SCC(=O)Nc1ccc(N2CCOCC2)cc1,5.57
5,COc1ccccc1NC(=O)CCCC(=O)OCC(=O)c1ccc(F)cc1,5.74
6,CCOc1ccc(C(C)=O)cc1CN1C(=O)NC2(CCCCC2C)C1=O (stereo not shown),2.64
7,COCCN1C=C(C(=O)OC)C(c2ccc3c(c2)OCO3)C(C(=O)OC)=C1,-14.2
8,CCC1Cc2c(nc(N)c3c(N)nc(N4CCCCC4)c(C#N)c23)O1 (stereo not shown),-35.2
9,COc1ccc(N(CC(=O)NC2CCCCC2)C(=O)c2snc(C(N)=O)c2N)cc1,0.904
10,CNC(=S)N/N=C/c1cc(Br)cc(Br)c1O,8.78
11,COCC(=O)N1CCC(Oc2ccc(C(=O)N3C[C@H]4CC[C@H]3C4)cc2)CC1,14.2
12,Nc1ccc(NC(=O)c2ccco2)c(Cl)c1,12.9
13,O=C(COc1ccccc1)NS(=O)(=O)c1ccc(Cl)cc1,22
14,CCN(CC)C(=O)c1cnn(-c2ccccc2)c1NC(=O)c1ccco1,-12.8
15,O=C1Nc2cc(C(=O)NCCN3CCCCCC3)ccc2S/C1=C\c1ccccc1,-43.9
16,O=C(CCNC(=O)c1ccc(Cl)cc1)NN1C(=O)NC2(CCCCC2)C1=O,-4.24
17,CC(C)(C)C(=O)Nc1ccnn1C1CCN(C(=O)c2cccc(Cl)c2)CC1,6.09
18,N#C/C(C(N)=O)=C1/SC=C(c2ccccc2)N1c1ccccc1,10.3
19,Cc1ccc(S(=O)(=O)c2cc3ccccc3oc2=Nc2ccc3c(c2)OCO3)cc1,4.43
20,CC(=O)c1ccc(OCc2cc(C(=O)N(C)CCOc3ccc(C)cc3)no2)cc1,-0.168
21,FC(F)(F)c1cccc(-c2nnc3ccc(C(F)(F)F)cn23)c1,-65.2
22,CCc1ccc(/C=C2/C(=O)NC(=O)N2C(C)=O)cc1,7.88

row,SMILES,"hERG current change (%, negative = inhibition) at 10uM [%]"
1,CCOc1ccc(NC(=O)CC2C(=O)N(C)C(=S)N2Cc2ccc3c(c2)OCO3)cc1 (stereo not shown),-8.33
2,CSc1nc(Cc2ccccc2)cc(=O)[nH]1,16.4
3,Cc1cc(C(=O)CN2C(=O)C(=O)N(Cc3ccccc3)C2=O)c(C)n1-c1ccc2c(c1)OCCO2,14
4,COCCN(C(=O)Cc1cccs1)C(C(=O)NCc1ccc(OC)cc1)c1ccccc1 (stereo not shown),-29.7
5,COc1ccc(/C(C)=N/NC(=O)CNC(=O)Cc2ccccc2)c(OC)c1,-4.12
6,O=C(CCS(=O)(=O)c1ccccc1)Nc1ccc(-c2nc3ccccc3s2)c(O)c1,10.4
7,Cn1c(=O)c2c(nc(CN3CCN(C(=O)c4ccco4)CC3)n2CC(=O)C(C)(C)C)n(C)c1=O,3.17
8,CCC(NC(=O)NCc1ccc2c(c1)OCO2)(C(F)(F)F)C(F)(F)F,-2.07
9,CC1CN(C(=O)c2cccs2)CC(C)O1 (stereo not shown),9.47
10,Cc1ccc(OCc2nc(-c3ccccn3)no2)c(Br)c1,-22.5
11,CC1Cc2nc(SCC(=O)NCc3ccco3)n(-c3ccccc3)c(=O)c2S1 (stereo not shown),-33.5
12,Cc1csc(NC(=O)COCC(=O)O)c1-c1nc2ccccc2s1,-1.83
13,Cc1sc(C(=O)NCc2cccnc2)c2nc(C)n(CC(=O)NCc3cccnc3)c(=O)c12,0.617
14,CC(C)c1ccc(NC(=O)NCc2ccc3c(c2)OCO3)cc1,13.4
15,Cc1cc(OCCCn2ccnc2)cc(C)c1Cl,-15.7
16,Cc1ccc(S(=O)(=O)NNc2ccccc2)cc1,14.4
17,CC(=O)c1ccc2c(c1)C1C(Cl)C(Sc3ccccc3[N+](=O)[O-])CC1C(c1ccccc1)N2 (stereo not shown),15.1
18,CCN1CCCC1CNC(=O)c1cc2cc(OC)c(OC)cc2[nH]1 (stereo not shown),16.6
19,CCN(Cc1cccc(F)c1)C(=O)c1ccc2ccccc2n1,-6.51
20,COc1ccc(/C=C/C(=O)OCC(=O)NC2CCCCC2C)c(OC)c1 (stereo not shown),-9.38
21,COc1cccc(/C=N/NC(=O)CCCC(=O)Nc2ccc(Br)cc2)c1,5.9
22,COc1ccc(N(C(=O)c2ccc(S(=O)(=O)N3CCOCC3)cc2)C2C=CS(=O)(=O)C2)cc1 (stereo not shown),-29.5

row,SMILES,"hERG current change (%, negative = inhibition) at 10uM [%]"
1,CCn1c2ccccc2c2n[nH]c(=S)nc21,12.4
2,CCc1nnc(NC(=O)c2cccc(S(=O)(=O)N3CCCC3)c2)s1,11
3,CC(C)CNC(=S)N1CCC(C(=O)c2ccc3c(c2)OCCO3)CC1,-14.7
4,NC(=O)N/N=C1\c2ccccc2-c2c(C(N)=O)cccc21,9.97
5,COc1ccc(NC(=O)c2sc(SCc3ccccc3)nc2N)cc1,11.5
6,CC(=O)N1CCN(c2ccccc2NC(=O)c2ccc(Br)o2)CC1,-54.4
7,CCN(CC)CCN(C(=O)c1ccc2c(c1)OCCO2)c1nc2cc(C)cc(C)c2s1.Cl,-69.9
8,COc1ccccc1NS(=O)(=O)c1cccc(C(=O)NCc2ccccn2)c1,13.2
9,CC(=O)N1CCN(S(=O)(=O)c2ccc(C)c([N+](=O)[O-])c2)C1C(C)C (stereo not shown),9.22
10,O=C(C1CCN(S(=O)(=O)c2ccccc2)CC1)N1CCN(c2ccccc2)CC1,35.7
11,CC1(C)CC(=O)C/C(=N\NC(=O)Cc2ccccc2)C1,17.9
12,CCCCN(C)C(=O)CSc1nc(NCc2ccc(OC)cc2)c2ccccc2n1,-71
13,Cc1ccccc1-c1nnc(SCC(=O)Nc2cccc(C)c2C)o1,-8.46
14,C=CCn1c(N2C(=O)CC(Cc3ccccc3)C2=O)nc2ccccc21 (stereo not shown),-29.1
15,CC(=O)Nc1ccc(NC(=O)CN(C)S(=O)(=O)c2ccc3c(c2)CCC(=O)N3)cc1,3.74
16,CCOc1ccccc1C(=O)N[C@H](C(=O)Nc1cc(S(=O)(=O)N(C)C)ccc1OC)C(C)C,-6.79
17,COc1ccc(-c2nnc(-c3ccc(Br)o3)o2)cc1OC,-12.3
18,CC1CCCCN1C(=O)CSc1ccc(-c2ccc(F)cc2)nn1 (stereo not shown),-20
19,COc1ccc(-c2noc(C)c2-c2ccc3ccccc3n2)c(O)c1,2.79
20,CCOC(=O)c1ccc(NC(=O)CCc2ccc(C)o2)cc1,5.09
21,COc1ccc(OC)c(NC(=O)COC(=O)COc2c(Cl)cc(Cl)c3ccc(C)nc23)c1,11.9
22,Cc1[nH]c2ccccc2c1C(=O)COC(=O)Cn1c(C)nc2ccccc21,4.61
